# Results as given in the supplement of paper PMC8728848.
# The other results are listed elsewhere or left out.
# What was measured:
# Assay in all cases: glycan array binding signal (z-score within array); higher = stronger binding
# Conditions in all cases: glycan notation: IUPAC condensed, linker removed
# [1] = molecular target: Gal(b1-3)GlcNAc(b1-2)Man(a1-3)[Gal(b1-3)GlcNAc(b1-2)Man(a1-6)]Man(b1-4)GlcNAc(b1-4)[Fuc(a1-6)]GlcNAc
# Procedure, shortened: (§1)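 Columns mapping to the same glycan were averaged after glycan names were converted to IUPAC-condensed notation. The data come from 3228 arrays in the Consortium for Functional Glycomics database, limited to those with an available protein sequence. Binding is reported as a within-array Z-score averaged across arrays of one protein sequence and across linkers.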
# [2] = molecular target: Gal(b1-3)GlcNAc(b1-2)Man(a1-3)[GlcNAc(b1-4)][Gal(b1-3)GlcNAc(b1-2)Man(a1-6)]Man(b1-4)GlcNAc(b1-4)GlcNAc
# Procedure, shortened: as §1
# [3] = molecular target: Gal(b1-3)GlcNAc(b1-2)[Gal(b1-3)GlcNAc(b1-6)]Man(a1-6)[Gal(b1-3)GlcNAc(b1-2)Man(a1-3)]Man(b1-4)GlcNAc(b1-4)GlcNAc
# Procedure, shortened: as §1
# [4] = molecular target: Gal(b1-3)GlcNAc(b1-3)Gal(b1-3)GlcNAc
# Procedure, shortened: as §1
# [5] = molecular target: Gal(b1-3)GlcNAc(b1-3)Gal(b1-4)Glc
# Procedure, shortened: as §1
# [6] = molecular target: Gal(b1-3)GlcNAc(b1-3)Gal(b1-4)GlcNAc
# Procedure, shortened: as §1
# [7] = molecular target: Gal(b1-3)GlcNAc(b1-3)Gal(b1-4)GlcNAc(b1-2)Man(a1-3)[Gal(b1-3)GlcNAc(b1-3)Gal(b1-4)GlcNAc(b1-2)Man(a1-6)]Man(b1-4)GlcNAc(b1-4)GlcNAc
# Procedure, shortened: as §1
# [8] = molecular target: Gal(b1-3)GlcNAc(b1-3)Gal(b1-4)GlcNAc(b1-2)[Gal(b1-3)GlcNAc(b1-3)Gal(b1-4)GlcNAc(b1-6)]Man(a1-6)[Gal(b1-3)GlcNAc(b1-3)Gal(b1-4)GlcNAc(b1-2)Man(a1-3)]Man(b1-4)GlcNAc(b1-4)[Fuc(a1-6)]GlcNAc
# Procedure, shortened: as §1
# [9] = molecular target: Gal(b1-3)GlcNAc(b1-3)Gal(b1-4)GlcNAc(b1-3)Gal(b1-4)GlcNAc(b1-2)[Gal(b1-3)GlcNAc(b1-3)Gal(b1-4)GlcNAc(b1-3)Gal(b1-4)GlcNAc(b1-6)]Man(a1-6)[Gal(b1-3)GlcNAc(b1-3)Gal(b1-4)GlcNAc(b1-3)Gal(b1-4)GlcNAc(b1-2)Man(a1-3)]Man(b1-4)GlcNAc(b1-4)[Fuc(a1-6)]GlcNAc
# Procedure, shortened: as §1
# [10] = molecular target: Gal(b1-3)GlcNAc(b1-3)Gal(b1-4)GlcNAc(b1-6)[Gal(b1-3)GlcNAc(b1-3)]Gal(b1-4)Glc
# Procedure, shortened: as §1
# [11] = molecular target: Gal(b1-3)GlcNAc(b1-3)Gal(b1-4)[Fuc(a1-3)]GlcNAc
# Procedure, shortened: as §1
# [12] = molecular target: Gal(b1-3)GlcNAc(b1-3)Gal(b1-4)[Fuc(a1-3)]GlcNAc(b1-6)[Gal(b1-3)GlcNAc(b1-3)]Gal(b1-4)Glc
# Procedure, shortened: as §1
# [13] = molecular target: Gal(b1-3)GlcNAc(b1-3)GalNAc
# Procedure, shortened: as §1
# [14] = molecular target: Gal(b1-3)GlcNAc(b1-6)Gal(b1-4)GlcNAc
# Procedure, shortened: as §1
# [15] = molecular target: Gal(b1-3)GlcNAc(b1-6)GalNAc
# Procedure, shortened: as §1
# [16] = molecular target: Gal(b1-3)GlcNAc(b1-6)[Gal(b1-3)]GalNAc
# Procedure, shortened: as §1
# Gal(b1-3)GlcNAc6S = molecular target: Gal(b1-3)GlcNAc6S
# Procedure, shortened: as §1
# [17] = molecular target: Gal(b1-3)[Fuc(a1-4)]GlcNAc
# Procedure, shortened: as §1
# [18] = molecular target: Gal(b1-3)[Fuc(a1-4)]GlcNAc(b1-2)Man
# Procedure, shortened: as §1
# [19] = molecular target: Gal(b1-3)[Fuc(a1-4)]GlcNAc(b1-2)Man(a1-3)[Gal(b1-3)[Fuc(a1-4)]GlcNAc(b1-2)Man(a1-6)]Man(b1-4)GlcNAc(b1-4)[Fuc(a1-6)]GlcNAc
# Procedure, shortened: as §1
# [20] = molecular target: Gal(b1-3)[Fuc(a1-4)]GlcNAc(b1-3)Gal(b1-3)[Fuc(a1-4)]GlcNAc
# Procedure, shortened: as §1
# [21] = molecular target: Gal(b1-3)[Fuc(a1-4)]GlcNAc(b1-3)Gal(b1-4)[Fuc(a1-3)]GlcNAc
# Procedure, shortened: as §1
# [22] = molecular target: Gal(b1-3)[Fuc(a1-4)]GlcNAc(b1-6)GalNAc
# Procedure, shortened: as §1
# [23] = molecular target: Gal(b1-3)[GlcNAc(b1-6)]GalNAc
# Procedure, shortened: as §1
# [24] = molecular target: Gal(b1-3)[Neu5Ac(a2-6)]GalNAc
# Procedure, shortened: as §1
# [25] = molecular target: Gal(b1-3)[Neu5Ac(a2-6)]GlcNAc(b1-4)Gal(b1-4)Glc
# Procedure, shortened: as §1
# [26] = molecular target: Gal(b1-3)[Neu5Ac(b2-6)]GalNAc
# Procedure, shortened: as §1
# Gal(b1-4)Gal = molecular target: Gal(b1-4)Gal
# Procedure, shortened: as §1
# [27] = molecular target: Gal(b1-4)GalNAc(a1-3)[Fuc(a1-2)]Gal(b1-4)GlcNAc
# Procedure, shortened: as §1
# [28] = molecular target: Gal(b1-4)GalNAc(b1-3)[Fuc(a1-2)]Gal(b1-4)GlcNAc
# Procedure, shortened: as §1
# Gal(b1-4)Glc = molecular target: Gal(b1-4)Glc
# Procedure, shortened: as §1
# Gal(b1-4)Glc6S = molecular target: Gal(b1-4)Glc6S
# Procedure, shortened: as §1
# Gal(b1-4)GlcNAc = molecular target: Gal(b1-4)GlcNAc
# Procedure, shortened: as §1
# [29] = molecular target: Gal(b1-4)GlcNAc(a1-6)Gal(b1-4)GlcNAc
# Procedure, shortened: as §1
# Gal(b1-4)GlcNAc(b1-2)Man = molecular target: Gal(b1-4)GlcNAc(b1-2)Man
# Procedure, shortened: as §1
# [30] = molecular target: Gal(b1-4)GlcNAc(b1-2)Man(a1-3)Man(b1-4)GlcNAc(b1-4)GlcNAc
# Procedure, shortened: as §1
# [31] = molecular target: Gal(b1-4)GlcNAc(b1-2)Man(a1-3)[Gal(b1-4)GlcNAc(b1-2)Man(a1-6)]Man(b1-4)GlcNAc(b1-4)GlcNAc
# Procedure, shortened: as §1
binder,measurement,setting,value
Epa3to1 (Candida glabrata) (protein) MGSSHHHHHHSSGLVPRGSHMKRELSSQNPFGYPIGCSPQDVAIIPGLTMELYSYPIVSGTPPNCYDASYVDPEYPRTGYLKRKMVGKSTGVTGNLNYKYSVEKACMVKYGNLPAGYNYNEPLTVSNFTMILYGYFKAQTTGLHTFFVNADDLLYINFGAGNAFDCCKREDSKTKLGEYVAYDIWHVDSSKNKVSLFLEKDLYYPIRMFFNNREYDSSLDLSFSVNGATDQISDFSGYLYSVPDQPDTCPAHIGYDTTCR,glycan array binding signal (z-score),[1],-0.163
same,glycan array binding signal (z-score),[2],-0.198
same,glycan array binding signal (z-score),[3],1.67
same,glycan array binding signal (z-score),[4],-0.713
same,glycan array binding signal (z-score),[5],-0.619
same,glycan array binding signal (z-score),[6],-0.502
same,glycan array binding signal (z-score),[7],-0.495
same,glycan array binding signal (z-score),[8],0.514
same,glycan array binding signal (z-score),[9],0.033
same,glycan array binding signal (z-score),[10],0.55
same,glycan array binding signal (z-score),[11],-0.365
same,glycan array binding signal (z-score),[12],-0.061
same,glycan array binding signal (z-score),[13],0.282
same,glycan array binding signal (z-score),[14],1.3
same,glycan array binding signal (z-score),[15],-0.115
same,glycan array binding signal (z-score),[16],-0.069
same,glycan array binding signal (z-score),Gal(b1-3)GlcNAc6S,-0.15
same,glycan array binding signal (z-score),[17],0.745
same,glycan array binding signal (z-score),[18],-0.37
same,glycan array binding signal (z-score),[19],-0.144
same,glycan array binding signal (z-score),[20],-1.4
same,glycan array binding signal (z-score),[21],-0.87
same,glycan array binding signal (z-score),[22],-0.591
same,glycan array binding signal (z-score),[23],0.879
same,glycan array binding signal (z-score),[24],5.48
same,glycan array binding signal (z-score),[25],-0.261
same,glycan array binding signal (z-score),[26],0.919
same,glycan array binding signal (z-score),Gal(b1-4)Gal,0.053
same,glycan array binding signal (z-score),[27],-0.965
same,glycan array binding signal (z-score),[28],0.637
same,glycan array binding signal (z-score),Gal(b1-4)Glc,0.097
same,glycan array binding signal (z-score),Gal(b1-4)Glc6S,0.529
same,glycan array binding signal (z-score),Gal(b1-4)GlcNAc,-0.071
same,glycan array binding signal (z-score),[29],-0.042
same,glycan array binding signal (z-score),Gal(b1-4)GlcNAc(b1-2)Man,-0.775
same,glycan array binding signal (z-score),[30],0.163
same,glycan array binding signal (z-score),[31],-0.402
